Assay results taken from PubChem BioAssay (NCATS).
Several values for one entry are separate records, joined by “and”; a condition that tells them apart may be missing. Equal values may be shown once. The shares of active, inactive and inconclusive entries below differ from those in the screen. For some of these results: Where the call is inconclusive, the potency comes from a doubtful curve fit. Where a structure was tested more than once in an assay, its records may differ in their call. Activity calls are given as the source filed them. Calls follow the shape of the dose curve; as a rule, active = well fitted curve in the direction sought with a large enough effect; inconclusive = small, poorly fitted or top-dose-only effect, or another doubt; inactive = no such curve, though single readings can be large; an effect the other way counts as inactive or inconclusive.

What was measured:
[1] = Viability qHTS for spleen associated tyrosine kinase inhibitor (SYKi) naive MV4-11 cells (AID 1963823); conditions: MV4-11 AML viability, CellTiter-Glo luminescence, 72 h; viability (% of control): at 45 µM (top of the series); also: nearly all actives have a fitted effect of over 40% in size; also: potency is read from the fitted curve at half-maximal effect
Summary of the method: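 Read-out: CellTiter-Glo luminescence. Exposure: 72 hr, 37 C, 5% CO2, 95% humidity. Cells: MV4-11 without SYK inhibitor history, 500/well, qHTS format.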

[2] = Viability qHTS for spleen associated tyrosine kinase inhibitor (SYKi) drug resistant MV4-11 cells (AID 1963824); conditions: SYKi-resistant MV4-11 viability, CellTiter-Glo, 72 h; series mostly up to 45 µM; also: nearly all actives have a fitted effect of over 35% in size; also: potency is read from the fitted curve at half-maximal effect
Summary of the method: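 SYK inhibitor-resistant MV4-11 AML cells, 500 per well, added to predispensed compounds and incubated 72 hr at 37 C, 5% CO2. Viability measured by CellTiter-Glo luminescence after 10 min at room temperature.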

[3] = Quantitative highthroughput screen to assess conditional lethalithy of P12 Ichikawa cells grown in RPMI1640 with dialyzed fetal bovine serum (RPMI+ds) (AID 1963880); conditions: ATP luminescence, 48 h; Potency: P12-Ichikawa viability; series mostly up to 45.8 µM;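 also: 100% = DMSO wells and 0% = empty wells on each plate; nearly all actives have a fitted effect of over 35% in size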
Summary of the method: (§1)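 Each medium arm—HPLM with 10% dialyzed FBS, or RPMI1640 with 5 mM glucose and 10% untreated or dialyzed FBS—was screened against an 11-point, 3-fold compound titration for 48 h at 37 °C, with CellTiter-Glo luminescence as endpoint.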

[4] = Quantitative highthroughput screen to assess conditional lethalithy of P12 Ichikawa cells grown in RPMI1640 with untreated serum (RPMI+s) (AID 1963881); conditions: ATP luminescence, 48 h; Potency: viability; series mostly up to 45.8 µM;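 also: 100% = DMSO wells and 0% = empty wells without cells; nearly all actives have a fitted effect of over 35% in size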
Summary of the method: as §1

[5] = Quantitative highthroughput screen to assess conditional lethalithy of SEM cells grown in Human Plasma-Like Medium with dialyzed fetal bovine serum (HPLM+ds) (AID 1963882); conditions: SEM B-ALL cells in HPLM+ds, CellTiter-Glo viability, 48 h; series mostly up to 45.8 µM; also: nearly all actives have a fitted effect of over 35% in size; also: potency is read from the fitted curve at half-maximal effect
Summary of the method: as §1

[6] = Quantitative highthroughput screen to assess conditional lethalithy of SEM cells grown in RPMI1640 with dialyzed fetal bovine serum (RPMI+ds) (AID 1963884); conditions: SEM B-ALL cells, RPMI+dialyzed FBS, CellTiter-Glo viability, 48 h; viability: at 45.8 µM (top of the series); also: nearly all actives have a fitted effect of over 35% in size; also: potency is read from the fitted curve at half-maximal effect;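 as to Viability: 100% = DMSO control wells and 0% = empty wells without cells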
Summary of the method: as §1

[7] = Quantitative highthroughput screen to assess conditional lethalithy of SEM cells grown in RPMI1640 with unreated serum (RPMI+s) (AID 1963883); conditions: SEM B-ALL cells, CellTiter-Glo viability, 48 h; viability: at 45.8 µM (top of the series); also: nearly all actives have a fitted effect of over 35% in size; also: potency is read from the fitted curve at half-maximal effect;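 as to Viability: 100% = DMSO wells and 0% = empty wells without cells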
Summary of the method: as §1

[8] = Cellular viability qHTS for adrenocortical cancer (ACC) cell line SW-13 (AID 1963989); conditions: SW-13 ACC cells viability, CellTiter-Glo, 48 h; activity (max response): stronger effect = lower value; also: nearly all actives have a fitted effect of over 65% in size; also: potency is read from the fitted curve at half-maximal effect;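 as to activity (max response): cells grown in serum-free medium with ITS supplement; % is scaled to controls: 0 for no effect and ±100 for the full control effect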
Summary of the method: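 Luminescent ATP read-out (CellTiter-Glo, 20 min at room temperature) measured metabolically competent SW-13 cells after 48 h compound treatment. Final concentrations spanned up to 46 uM; bortezomib served as positive control.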

[9] = Cellular viability qHTS for adrenocortical cancer (ACC) cell line NCI-H295R (AID 1963990); conditions: CellTiter-Glo ATP luminescence, 48 h; activity change, negative = viability loss: at 46.1 µM (top of the series); also: potency is read from the fitted curve at half-maximal effect; nearly all actives have a fitted effect of over 60% in size
Summary of the method: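 IC50 and maximal efficacy derive from four-parameter logistic modelling of titration curves, with reads scaled between DMSO-only wells (0%) and doxorubicin hydrochloride (100% inhibition). Compounds spanned up to 46 uM over 48 h.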
Tags tell the direction and shape of the fitted curve.

CC(=O)SC[C@@H](C)C(=O)N1CCC[C@H]1C(=O)N[C@@H](Cc1ccccc1)C(=O)O
Potency [1]: inconclusive: 11.8 µM [cytotoxic, single point] | Potency [2]: inconclusive: 11.8 µM [cytotoxic, single point] | Potency [3]: inactive | Potency [4]: inactive | Potency [5]: inconclusive: 10.5 µM [cytotoxic, single point] | Potency [6]: inactive

CC1=CC(=O)c2ccccc2C1=O
Potency [1]: inconclusive: 39.8 µM [cytotoxic, partial curve] and active: 7.42 µM | Potency [2]: inconclusive: 39.8 µM [cytotoxic, partial curve, poor fit] and active: 4.68 µM | Potency [7]: inconclusive: 26.4 µM [cytotoxic, single point] | Potency [6]: inconclusive: 10.5 µM [cytotoxic, partial curve]

CCC1=C[C@@H]2CN(C1)Cc1c([nH]c3ccccc13)[C@@](C(=O)OC)(c1cc3c(cc1OC)N(C)[C@H]1[C@@](O)(C(=O)OC)[C@H](OC(C)=O)[C@]4(CC)C=CCN5CC[C@]31[C@@H]54)C2
Potency [1]: active: 8.4 nM and active: 91 nM | Potency [2]: active: 7.5 nM and active: 64.5 nM | Potency [8]: active: 0.143 µM

CCOC(=O)N1c2ccc(C(F)(F)F)cc2[C@@H](N(Cc2cc(C(F)(F)F)cc(C(F)(F)F)c2)C(=O)OC)C[C@H]1CC
Potency [1]: inconclusive: 13.2 µM [cytotoxic, partial curve] | Potency [2]: active: 7.42 µM | Potency [7]: inactive | Potency [6]: inactive

COc1ccc2[nH]c(S(=O)Cc3ncc(C)c(OC)c3C)nc2n1 (configuration not stated)
Potency [1]: inconclusive: 8.41 µM [cytotoxic, partial curve] and inconclusive: 25.9 µM [cytotoxic, single point] and inconclusive: 37.2 µM [cytotoxic, single point] | Potency [2]: inconclusive: 13.3 µM [cytotoxic, partial curve, poor fit] and inconclusive: 11.6 µM [cytotoxic, partial curve] and inconclusive: 33.2 µM [cytotoxic, single point] | activity (max response) [8]: inactive: 4.99% and inactive: -14.4%

C=CCN(/C=C1\C(=O)O[C@@H](COC)[C@]2(C)C1=C(O)C(=O)C1=C2[C@@H](OC(C)=O)C[C@]2(C)C(=O)CC[C@H]12)CC=C
Potency [1]: inconclusive: 11.8 µM [cytotoxic, partial curve, poor fit] | Potency [2]: inconclusive: 0.001 µM | Potency [8]: inconclusive: 35.5 µM [cytotoxic, single point]

CC(=O)NC[C@H]1CN(c2ccc(N3CCOCC3)c(F)c2)C(=O)O1
Potency [1]: inconclusive: 14.8 µM [cytotoxic, partial curve] | Potency [2]: inconclusive: 6.61 µM [cytotoxic, full curve] | Potency [5]: inactive | Potency [7]: inactive | Potency [9]: inconclusive: 31.6 µM [rising, single point]

O=C(/C=C/c1ccccc1)NCCO
Potency [1]: inconclusive: 18.8 µM [cytotoxic, single point] | Potency [2]: inactive | Potency [8]: inconclusive: 29.1 µM [cytotoxic, single point]

CC(=O)N1CCN(c2ccc(O)cc2)CC1
Potency [1]: inactive | Potency [2]: inconclusive: 33.5 µM [cytotoxic, single point] | activity (max response) [8]: inactive: 7.26%

CN(C)[C@@H]1C(=O)C(C(N)=O)=C(O)[C@@]2(O)C(=O)C3=C(O)c4c(O)cccc4C[C@H]3C[C@@H]12
Potency [1]: inactive | Potency [2]: inactive | Potency [8]: inconclusive: 25.9 µM [cytotoxic, single point]
